Results on 52 molecules are retold here after PubChem BioAssay AID1347073 (National Center for Advancing Translational Sciences (NCATS), 2019).

The whole screen tested about 45,000 compounds, of which about 200 (0.44%) were called active. Inconclusive results (about 7%) are left out. Calls follow the shape of the dose curve; as a rule, active = well fitted activation curve with a large enough effect; inconclusive = small, poorly fitted or top-dose-only effect; inactive = no such curve, though single readings can be large or run the other way. The list shows a part of the results.
Potency is read from the fitted curve at half-maximal effect.

The nature of this experiment: qHTS of TDP-43 Inhibitors: NCGC Sytravon Library Screen. Also: nearly all actives have a fitted effect of over 55% in size. As to growth rescue (activation): 0% is about no effect. To be noted: yeast TDP-43 toxicity rescue, BacTiter-Glo growth, 24 h; series mostly up to 46.1 µM; growth rescue (activation): at the top concentration. An outline of the steps:
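TDP-43-expressing yeast, pregrown in raffinose, seeded at OD600 0.02 in galactose medium with compound for 24 hr at 30 deg C. Growth read by BacTiter-Glo luminescence, so rescue of toxicity appears as activation.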
(In general: qHTS replaces the single test concentration by a dilution series.)
As to `Cc1nc2nc[nH]n2c(=O)c1NS(=O)(=O)c1ccc(F)cc1`, the “growth rescue (activation)” value is inactive: -0.684%. Regarding `COc1ccc(CCN2CCCC(CN(C)Cc3cccc(OC)c3)C2)cc1` (configuration not stated), the “growth rescue (activation)” value is inactive: 6.49%.

Regarding `CCOC(=O)C1CCCN(C(=O)c2ccc(OC)cc2)CC1` (configuration not stated), the “growth rescue (activation)” value is inactive: 9.96%.

As to `COC(=O)c1c(NC(=O)CCNCc2ccco2)sc2c1CCC2`, the “growth rescue (activation)” value is inactive: 16.6%. The same measure, in the same setting: the figure for `COc1ccc(-n2c(=S)[nH]c3cc(C(=O)Nc4ccc(C)c(F)c4)ccc3c2=O)c(OC)c1` is inactive: 21.1%. Same read-out and setting: the figure for `CCOC(=O)Cc1csc(N/C(=N/S(=O)(=O)c2ccc(Cl)cc2)c2ccccc2)n1` is inactive: -2.98%; for `O=C(OCC(=O)N1CCC(Cc2ccccc2)CC1)c1cccnc1Cl` it is inactive: 8.35%. In the case of `CCn1nnc2cc(C(=O)NCCc3ccccc3F)ccc21`, the “growth rescue (activation)” value is inactive: -2.86%. Still for that read-out and setting: as for `Cc1cc(C)cc(N2C(=O)CC(Sc3ncn[nH]3)C2=O)c1` (configuration not stated), the figure is inactive: 22.6%; as for `Cn1c(N)c(C(=O)CSc2nnc(N)s2)c(=O)n(C)c1=O`, inactive: -22.4%; as for `CCCCc1c(C)nc(N)[nH]c1=O`, inactive: 12%. On the same count and under the same terms, as for `CC1CC(C)CN(S(=O)(=O)c2cccc(C(=O)N3C(=O)c4cccc(N)c4C3=O)c2)C1` (configuration not stated), the figure is inactive: 20.1%; as for `O=c1cc(COc2ccc(Cl)c(Cl)c2)nc2sccn12`, inactive: 11.3%.

With `C=CCC1(C#N)C(SC)=NC2=C(C(=O)CC(C)(C)C2)C1c1ccc(Br)cc1` (configuration not stated), the “growth rescue (activation)” value is inactive: 5.16%. Turning to `NC(N)=NS(=O)(=O)c1ccc(NC(=S)NC(=O)c2ccncc2)cc1`, the “growth rescue (activation)” value is inactive: 12.1%. Same read-out and setting: the figure for `CSc1ccccc1C(=O)Nc1nc2ccccc2c(=O)[nH]1` is inactive: 2.97%; for `COc1ccc(CCNC(=O)c2cc3c(F)cccc3s2)cc1OC` it is inactive: -15.8%. Still for that read-out and setting: as for `Cc1ccc(NC(=O)c2ccc(Cl)c(S(=O)(=O)Nc3c(C)n(C)n(-c4ccccc4)c3=O)c2)cc1Cl`, the figure is inactive: 29%; as for `Cn1cc(C(=O)N2CCc3ccccc3C2)c(=O)c2cc(S(=O)(=O)N3CCOCC3)ccc21`, inactive: 5.75%; as for `CC(=O)Nc1ccc(S(=O)(=O)NCc2nc(-c3ccccc3)no2)cc1`, inactive: 2.2%. Take `NS(=O)(=O)c1ccc(Nc2nc(-c3cccc([N+](=O)[O-])c3)cs2)cc1`: the “growth rescue (activation)” value is inactive: 1.63%. Same read-out and setting: the figure for `CCN(CC)S(=O)(=O)c1cccc(C(=O)OC2CC(C)OC2=O)c1` (configuration not stated) is inactive: -4.1%; for `COc1ccc(S(=O)(=O)N2CCCCC2)cc1NC(=O)c1cc(C)on1` it is inactive: 14.7%. On the same count and under the same terms, the figure for `COc1cc(C(=O)NCC2CCCCC2)cc(OC)c1OC` is inactive: 8.02%; for `NS(=O)(=O)c1ccc(NC(=S)Nc2ccc(F)c(F)c2)cc1` it is inactive: 8.34%. As to `COc1ccc(NC(=S)N(CCC(C)C)C(C)c2ccncc2)cc1` (configuration not stated), the “growth rescue (activation)” value was inactive: 3.25%. Regarding `O=c1[nH]c2cc3c(cc2cc1CN(Cc1ccco1)C(=S)NCCCN1CCOCC1)OCCO3`, the “growth rescue (activation)” value was inactive: -3.01%. Same read-out and setting: as for `COc1ccccc1Cn1c(=S)[nH]c2ccc(Br)cc2c1=O`, the figure is inactive: 8.76%; as for `CC1(C)CC(NS(=O)(=O)c2ccc(F)cc2)CC(C)(C)N1`, inactive: -0.139%. Still for that read-out and setting: the figure for `CC(C)(C)c1ccc(OCCOCCn2cnc3ccccc3c2=O)cc1` is inactive: 0.768%; for `C/C(CC(=O)Nc1cccc(Cl)c1Cl)=N\NC(=O)c1ccccc1C` it is inactive: 15.5%; for `CCCCN(C)C(=S)Nc1ccc(Oc2ccccc2)cc1` it is inactive: 21.2%.

On to `COc1ccc(CNS(=O)(=O)NCc2ccc(OC)c(OC)c2)cc1`, for which the “growth rescue (activation)” value was inactive: 11.7%. Same read-out and setting: as for `Cc1cc(C(=O)CN2C(=O)C(=O)N(Cc3ccccc3)C2=O)c(C)n1-c1ccccc1F`, the figure is inactive: -9.9%. Same read-out and setting: the figure for `COc1cccc(C2NC(=O)c3sc(=S)n(-c4ccccc4)c3N2)c1` (configuration not stated) is inactive: 7.63%. `O=C(NCCN1CCCCCC1)C1CCN(S(=O)(=O)N2CCOCC2)CC1`: the “growth rescue (activation)” value was inactive: -13.9%. For the molecule `O=C(N/N=C\c1ccc2c(c1)OCO2)c1cncc(Br)c1`, the “growth rescue (activation)” value is inactive: -2.5%. On to `O=S(=O)(NCCc1csc(-c2ccccc2)n1)c1ccc2c(c1)OCCO2`, for which the Potency is active: 17.8 µM. For `CCOC(=O)C1(Cc2ccccc2)CCN(Cc2cnn(CC)c2)CC1`, the “growth rescue (activation)” value is inactive: 6.02%. On the same count and under the same terms, as for `CCN(C(=O)COC(=O)c1ccc(N2C(=O)c3ccccc3C2=O)cc1)C1CCS(=O)(=O)C1` (configuration not stated), the figure is inactive: -1.79%; as for `NNC(=O)CSc1nc(-c2ccccc2)nc2c1CCCC2`, inactive: 6.23%. The same measure, in the same setting: the figure for `COc1cccc2cc(C(=O)C3=C(O)C(=O)N(CCN4CCOCC4)C3c3cccs3)oc12` (configuration not stated) is inactive: 9.7%. On the same count and under the same terms, the figure for `O=C(Nc1ccc(NC(=O)c2cccs2)c(Cl)c1)c1cccs1` is inactive: -0.504%; for `COC(=O)C(C)(C)ONC(=O)Nc1ccc([N+](=O)[O-])cc1` it is inactive: 5.57%; for `Cc1cc(C)cc(NC(=O)CSc2nnnn2-c2cccnc2)c1` it is inactive: 1.99%. For `O=C(COC(=O)CNS(=O)(=O)c1ccc2ccccc2c1)Nc1ccccc1Sc1ccccc1`, the “growth rescue (activation)” value was inactive: 21.8%. The same measure, in the same setting: as for `Cc1cccc(S(=O)(=O)NC(=O)C2(C)CCN2C(=O)Cc2cccs2)c1` (configuration not stated), the figure is inactive: 4.16%; as for `Cc1cc(C)c(C)c(S(=O)(=O)N2CCCN(C)CC2)c1C`, inactive: 1.9%; as for `COc1ccccc1N(CC(=O)NCc1ccccc1C)S(=O)(=O)c1ccc(C)cc1`, inactive: 21.6%.

Turning to `CC(C)(C)OC(=O)N[C@@H](Cc1ccccc1)C(=O)NCC1CCC(C(=O)N[C@@H](CCC(N)=O)C(=O)O)CC1` (some centres not stated), the “growth rescue (activation)” value was inactive: -10.9%. Turning to `Nc1c(-c2ccccc2)c(CN2CCOCC2)nn1-c1ccc(F)cc1`, the “growth rescue (activation)” value was inactive: 23.4%.

As for `Cc1cccc(NC(=S)N/N=C2\CC(C)(C)Oc3ccc(O)cc32)c1`, the “growth rescue (activation)” value is inactive: 19.8%.
